Measurements as given in the RNAGym collection of RNA variant scans (doi:10.7554/elife.90254).
The source gives no read counts; variants with many changes may rest on few reads.

B1: LINE1-mini (parent)
chain: GGCAGAGCUCAACACAGCGUGGCAAAGUGGCUGUGGCUAGACUGCC

Variants of: B1
Assay: self-cleavage, relative activity (ratio to wild type); higher = more cleavage; in vitro, sequencing; the parent is a self-cleaving ribozyme

| Variant | self-cleavage |
| --- | --- |
| C15G G21U G29U U34G U43A | 0 |
| A6U A14G C45A | 0.09 |
| G30U C31G U32A G35C | 0.01 |
| C8A C10U C18U G36A G40U | 0.03 |
| G7A U9G C13G G30A G35C C37A | 0.01 |
| C8U U20A C46U | 0.06 |
| A4U C10A C46G | 0.03 |
| C13G C15G G21U A26C G35A C42A | 0 |
| G17U C18A C23A G30A C31U A41U G44U | 0.02 |
| U9G A16G G21A G33U | 0.07 |
| G5U G7C C15A G21U | 0.07 |
| A16U G19U C46A | 0.23 |
| C18G A25C G40U | 0.09 |
| C10U G29A G33C U34A | 0.02 |
| A4G G7A G29A C42G | 0.03 |
| C18A U20G C23U | 0.13 |
| G19U G29C G36A C42U | 0.08 |
| C10U A16C G27U C45U | 0.06 |
| C3A A6C A39G C42G | 0.04 |
| U9A A12U C13A G36C | 0.09 |
| G5A G33A U43C C45A | 0.07 |
| U9G A14C G35C G44U | 0.01 |
| A6G C8A C18U | 0.29 |
| U9G C15G C31G G35U A41C | 0 |

| Variant | self-cleavage |
| --- | --- |
| A12U C13A A14C A41U | 0.03 |
| G1U A6G C23A G44C | 0.06 |
| A24G G29U A39U C45A | 0.88 |
| G1U G2A A16C G17U U32A | 0.01 |
| A11C G19C C37G | 0.01 |
| C13U A24C G29U U38A | 0.05 |
| A12U U43C C45A | 0.05 |
| G17U U28G G40U C42A | 0.01 |
| A16U A24G C42U | 0.13 |
| C8A C10U C13U | 0.1 |
| A6U C10A G36U | 0.05 |
| C15G U28G G35C | 0.01 |
| G1C G17A U20C U34A C46U | 0.01 |
| C3G C13U A16U C18A C31G | 0.04 |
| G5A G7A A16U U34C | 0.25 |
| G30A C37A C46U | 0.11 |
| U9C A26G G30A | 0.04 |
| C8U C23G A26C | 0.1 |
| C13A G21A G35C G44U | 0.09 |
| C18A G21C G35A C45G | 0 |
| C8A C10A A25U C31U | 0.03 |
| C18U G33U C42A | 0.02 |
| G1A G22A G35A | 0.28 |
| G2A C13G G17A C31U U43A | 0.04 |

| Variant | self-cleavage |
| --- | --- |
| C10U C15U A16U U32G G35U C46U | 0.01 |
| C31A U38G C46G | 0 |
| A4U A24G G35C | 0.01 |
| G2C C8U G27U U34A G40U | 0.04 |
| G1A A6C A11U G36C | 0.21 |
| A14G A25G G27C | 0.05 |
| C8A A14G C18U C42G | 0 |
| G17U A24C C31U A39U | 0.08 |
| G2U C8G G44A | 0.02 |
| A14C G29U G30A | 0.16 |
| U9G G22U C31U U34C | 0.02 |
| G1A G5U U9G G30A | 0.07 |
| G5C G19U A41U C42U | 0.04 |
| G1C C3A A12G A14C A16G G29U | 0.02 |
| A6G G7U U34A | 0.01 |
| U28G G29A C46U | 0.12 |
| C23A G30U G44U | 0.15 |
| G21U A26G G27A C37U | 0.01 |
| C10A C15A C18G G22U | 0.06 |
| C3G G19C G30U C46U | 0.13 |
| C13A A41C C42A C46G | 0 |
| C13U C15G U20G G22C G27C C37A | 0.01 |
| G7C G17A G33A | 0.02 |
| G1C C31U A39G | 0.02 |

| Variant | self-cleavage |
| --- | --- |
| G1A U9G G33U | 0.05 |
| A6U C8G C31U | 0.03 |
| G5C C10U G36U | 0.03 |
| A24C G29U G35C A41C C45U | 0.07 |
| U9C C13A A24C G44A | 0.04 |
| G2A A14U C18G C37G A39G | 0.47 |
| C8A A14G G40A | 0.11 |
| C13U G19A A25C U32C G33A A41U C42A | 0.09 |
| A16G U20G G29U | 0.16 |
| G17U G36A A41C | 0.12 |
| G2C C15U C45A | 0.01 |
| G5C C13A G29U | 0.15 |
| C3G G19A G21C G22A G29A | 0.16 |
| C13A G33U G44A | 0.04 |
| G30A U38G A39G | 0.01 |
| G2A G5C C10A U34A U38C | 0 |
| G21C C31U C42A | 0 |
| G5A C15G G22C C31A U32G G44A | 0 |
| C10U G17C C23U G33A U38G A41G C42G | 0.04 |
| G5A U20G C23A G35U | 0.11 |
| G2A G21U G29C C31U C46A | 0.19 |
| C3G G17U A39G G40U | 0.03 |
| G22A G36C U43A | 0.03 |
| C15G C31G C37U | 0.02 |

| Variant | self-cleavage |
| --- | --- |
| A4U G29U U43C | 0.01 |
| G2A G22C G35C U43C | 0.09 |
| C10U A12C A24C | 0.01 |
| G1A C10A U38C A41C | 0 |
| U32A G35U C42G | 0 |
| C18U G19C A25C | 0.11 |
| G1A G7A A41G | 0.24 |
| A6G A11G C23U | 0.01 |
| C13U G21A U28C U38A | 0.42 |
| U9A A12C G30U C31A C46U | 0.01 |
| G7C C15G A26C G30C U32C | 0.03 |
| G7U A11C C18A G22C C42U | 0 |
| U32G G33A A39C | 0.01 |
| A6U A12U G22U A39U A41C | 0 |
| G2A C23A U34C G35C | 0.27 |
| A11U A16G G22U C31U | 0.01 |
| A4G G5A A12U G36A | 0.05 |
| G7C C15G G19A A25C G27A | 0.06 |
| C10A C15A G17A G22U U32C U43G | 0.02 |
| G2U G29U U32A | 0.05 |
| A24U U28G C45U | 2.5 |
| C13G C18U G36U U43A | 0.01 |
| A12U G19A G21U | 0.65 |
| G1C G2C C10A C15A | 0.01 |

| Variant | self-cleavage |
| --- | --- |
| G2C A12G U20C U32A | 0.03 |
| C3G A14C G19C U20A G27U C45G | 0.02 |
| G19A G21C A39C | 0.03 |
| G2C C3A C10A A12C A24U | 0.05 |
| C13A G30U C46A | 0.05 |
| C3G G5A U9C A11U A16C G27C G33A | 0.01 |
| C8A C15G C31A G36C | 0.91 |
| C3G A25U G44A | 0.55 |
| G19A C23U A26U | 0.86 |
| C13A U20C C42A | 0.05 |
| G17C A24U A26G G30U C46G | 0.03 |
| A6C U9C A12C G21U | 0.03 |
| C8A G22U U34A U38G | 0.03 |
| C15A G17A G21U C31U U34C | 0.02 |
| G7A G22C G44C | 0.09 |
| A4G C8A A16U | 0.02 |
| A6C C10A U28G | 0.02 |
| A6G A24C U28A | 0.1 |
| G17C U20C G21A A24G | 0.32 |
| G1C U9A C23A U32C G33A U34C | 0.03 |
| A26G C31U C42G | 0.08 |
| G1C G2U C10U G19A | 0.05 |
| C10A C15G G36U A41G | 0.02 |
| A6U G7U G35A G36U | 0.09 |

| Variant | self-cleavage |
| --- | --- |
| C3G G5C C8A U9C G17U C45G | 0.01 |
| G2C A12C A25U A26G | 0 |
| A6U G35C C42U | 0.1 |
| G5C U9A C13A G44U | 0.01 |
| G1C G5A G7A A41U C46U | 0.11 |
| G22A C23A A25C G36U | 0.06 |
| G1A C3A C10A A11C A12C G29A C42A | 0.04 |
| A12G G17U U20A U28C | 0.03 |
| C10A G35C A39C | 0 |
| G2U A11C A16U A26G G30C U34C G40U | 0.01 |
| A4C C10A A41U G44C C46G | 0.01 |
| C10A C15A G30C | 0 |
| C10U C42A U43G | 0.03 |
| U9A A26U C31U G33A C45G | 0.34 |
| U9C A16U A24C | 0.01 |
| G1C C13U G21U C46G | 0.01 |
| G5U C45G C46A | 0.52 |
| U34G G36C A41G | 0.03 |
| C13A C15U G17C G29A | 0.25 |
| C3A C8A C13U C15A A24G | 0.27 |
| G7U C15U A24G | 0.19 |
| A14C G22A G27A G33A | 0.06 |
| G1C C18G A26G A41U | 0 |
